Experimental data taken from PubChem BioAssay AID493208 (National Center for Advancing Translational Sciences (NCATS), 2011).
The campaign covered roughly 44,000 compounds. About 340 (0.77%) were called active. Another 5% or so got no clear call; they are omitted. Calls follow the shape of the dose curve; as a rule, active = well fitted inhibition curve with a large enough effect; inconclusive = small, poorly fitted or top-dose-only effect; inactive = flat fitted curve, though single readings scatter. The list shows a part of the results.

test: Acumen qHTS Assay for Inhibitors of the mTORC1 Signaling Pathway in MEF (Tsc2-/-, p53-/-) Cells: Sytravon; conditions: phospho-rpS6 immunofluorescence/PI, 24 h; series mostly up to 38.3 µM; activity change, negative = inhibition: at the top concentration;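 also: plate controls were DMSO for no effect and rapamycin for full effect; nearly all actives have a fitted effect of over 50% in size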
Method in brief: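 Readout is phospho-S6 Alexa 488 signal normalized to PI per well, reported as % active cells with thresholds set from rapamycin (7.5 nM) and DMSO controls. Cells: Tsc2-/-, p53-/- MEFs, 24 hrs compound at 37 C; PI cell number serves as viability.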

Structure (SMILES) | activity change, negative = inhibition
O=C(Nc1ccc(C(=O)OCc2cc(=O)n3ccsc3n2)cc1)c1cccc(F)c1 | inactive: 28.5%
COc1ccc(Nc2c3c(nc4ccc(NC(=O)c5cc(Cl)ccc5OC)cc24)CCCC3)cc1OC | inactive: 0.308%
CCOc1ccc(CC(=O)Nc2c(C(=O)c3ccc(F)cc3)oc3ccc(Cl)cc23)cc1OCC | inactive: 8.52%
COc1ccc(OC)c(CNC(=O)C2CCN(S(=O)(=O)c3ccc4[nH]c(=O)oc4c3)CC2)c1 | inactive: 3.92%
Cc1ccc(CNC(=O)c2c[nH]n3c(=O)c(Cc4ccc(F)cc4Cl)c(C)nc23)cc1 | inactive: -20.5%
Cc1nnc(N2CCN(c3cccc(C(F)(F)F)c3)CC2)c2c1nnn2Cc1ccccc1 | inactive: 2.76%
Cn1c(C(=O)N2CCC(C(=O)N3CCN(c4ccccc4)CC3)CC2)cc2sccc21 | inactive: -4.32%
COc1ccc(N2Cc3cccc(C(=O)Nc4cccc(F)c4)c3C2=O)cc1 | inactive: -13.2%
Cc1noc2ncnc(NCc3ccc(Cl)cc3)c12 | inactive: -10.6%
Cc1cc(NC(=O)C2CCCN(S(=O)(=O)c3cn(C)cn3)C2)ccc1Br (stereo unspecified) | inactive: 0%
Cc1ccc(-c2cc(NC(=O)C(C)Oc3ccccc3F)on2)cc1 (stereo unspecified) | inactive: -16.2%
CN(C)c1ccc(C(=O)Nc2ccc(-c3nc4ccccc4o3)cc2)cc1 | inactive: 4.15%
CCOC(=O)c1ccc(N2C(=O)c3n[nH]c(-c4cccs4)c3C2c2ccc(OC)cc2OC)cc1 (stereo unspecified) | inactive: -8.08%
Cc1ccc(NC(=O)c2ccc(N(Cc3ccccc3)S(C)(=O)=O)cc2)cc1 | inactive: 0.186%
CC(C)c1ccc(C2=NC(c3ccncc3)=Nc3ccc(F)cc3N2)cc1 | inactive: -15.4%
O=C(Nc1nc2c(s1)CCCC2)c1ccccc1F | inactive: -14.6%
CCOC(=O)c1c(S(=O)(=O)N2CCN(c3cccc(C(F)(F)F)c3)CC2)c(C)n(C)c1C | inactive: 0.561%
CCCn1cc(S(=O)(=O)c2ccc(CC)cc2)c(=O)c2cc(F)c(N3CCN(C)CC3)cc21 | inactive: -7.88%
CCOc1ccc(Cn2c(CNS(=O)(=O)c3ccc(CC)cc3)nc3cccnc32)cc1 | inactive: 0.307%
COc1ccc(OC)c(CCNC(=O)c2nn(C)c3c2CSc2ccccc2-3)c1 | inactive: 2.34%
CNC(=O)c1ccc2nc(Cc3ccccc3)oc2c1 | inactive: -7.59%

Structure (SMILES) | activity change, negative = inhibition
CCC1CCc2c(sc(NC(=O)C3c4ccccc4Oc4ccccc43)c2C(=O)OC)C1 (stereo unspecified) | inactive: -16.3%
CC(C)c1ccc2oc(-c3ccc(Cl)c(NC(=O)Cc4ccccc4)c3)nc2c1 | inactive: -26%
CCOC(=O)N1CCC(NC(=O)c2ccc3c(c2)N(Cc2ccc(Cl)cc2)C(=O)c2ccccc2S3(=O)=O)CC1 | inactive: 5.04%
Cc1ccc(C(=O)c2oc3ccccc3c2NC(=O)C(C)Oc2ccccc2Cl)cc1 (stereo unspecified) | inactive: -1.02%
Cc1cc(Br)ccc1NC(=O)CCNS(=O)(=O)c1cccc2nonc12 | inactive: -13.1%
COc1ccc(NC(=O)c2c(NCc3cccs3)sc3c2CCCCC3)c(OC)c1 | inactive: -9.98%
O=C(Nc1ccc(Br)cc1F)c1cc2nc(-c3ccco3)cc(C(F)(F)Cl)n2n1 | inactive: 1.2%
CCOc1ccc(OCC)c(Nc2nc3ccc(C(=O)c4ccccc4)cc3n3cnnc23)c1 | inactive: -5.78%
O=S(=O)(c1ccc(OC(F)(F)F)cc1)N1CCC(c2nc3ccccc3s2)CC1 | inactive: 2.61%
COc1ccc2c(c1)CC(C(=O)Nc1ccc(OC)cc1OC)CO2 (stereo unspecified) | inactive: -18.6%
O=C(Cn1cc(SCc2ccccc2F)c2ccccc21)N1CCCC1 | inactive: -3.69%
CCC(=O)Nc1ccccc1-c1nc2ccccc2n(CC(=O)Nc2ccc(C)c(C)c2)c1=O | inactive: -4.89%
CCc1ccc(NC(=O)C2CCN(S(=O)(=O)c3c(C)noc3C)CC2)cc1 | inactive: 1.76%
Cn1c(=O)c2cc(C(=O)Nc3cccc(C#N)c3)sc2c2ccccc21 | inactive: 1.22%
COc1ccc(C2=NN(CC(=O)NCCc3ccccc3)C(=O)CC2)cc1 | inactive: -4.01%
COC(=O)c1ccc(NC(=O)NC(C)c2c(-n3cccc3)sc(C)c2C)cc1 (stereo unspecified) | inactive: -17.2%
O=C(NC1CCCC1)c1ccc(CSc2nc3cccnc3n2Cc2ccccc2)cc1 | inactive: -1.35%
COc1ccc(CCNC(=O)CSCc2nc(-c3cccc(C)c3)oc2C)cc1OC | inactive: -13.6%
O=C(NCc1ccccc1)c1ccc2c(c1)N(Cc1ccc(F)cc1)CCS2 | inactive: -0.948%
COc1ccc(Cl)cc1NC(=O)c1sc2nc(-c3ccc(OC)c(OC)c3)ccc2c1N | inactive: -2.88%
COC(=O)c1sc2cccc(F)c2c1S(=O)(=O)Nc1cc(C)c(Cl)cc1OC | inactive: 0%

Structure (SMILES) | activity change, negative = inhibition
O=C(COc1ccc(Cl)cc1)Nc1ccc(-c2nc3cc(Cl)ccc3o2)c(O)c1 | inactive: 3.89%
CCCNC(=O)C1CCC(Cn2c(=O)c3sccc3n(CC(=O)N3CCCC3)c2=O)CC1 (stereo unspecified) | inactive: 0.474%
CCc1cccc(C)c1NC(=O)CN1C(=O)c2ccccc2Sc2ncccc21 | inactive: -1.89%
COc1ccc(CNC(=O)c2cc3oc4ccccc4c3n2C)cc1OC | inactive: -4.14%
CCCNC(=O)CN1C(=O)c2c(c3ccccc3n2C)C1c1ccc(OC)cc1 (stereo unspecified) | inactive: -2.61%
CCc1ccc(S(=O)(=O)c2nnn3c2nc(N2CCC(C(N)=O)CC2)c2cc(Cl)ccc23)cc1 | inactive: 1.5%
Cc1c(C(=O)Nc2cccc(C#N)c2)sc2nc3n(c(=O)c12)CCCCC3 | inactive: 7.42%
CC1CN(C(=O)N2CCC(C(=O)NCc3ccco3)CC2)c2ccccc2O1 (stereo unspecified) | inactive: 4.95%
CC1CCN(c2nc3ccccc3nc2C(F)(F)F)CC1 | inactive: -3.66%
Cc1ccc2ncc(C(=O)c3ccc(C)c(C)c3)c(S(=O)(=O)c3ccccc3)c2c1 | inactive: -5.8%
CCOc1cccc(C2c3c(oc4ccc(F)cc4c3=O)C(=O)N2c2cc(C)ccn2)c1 (stereo unspecified) | inactive: -1.1%
O=C(Nc1nc2ccccc2n1CCOc1ccccc1Cl)c1ccccc1 | inactive: -3.56%
Cc1cccc(CN2C(=O)c3ccccc3Sc3ccc(C(=O)NCCCN4CCOCC4)cc32)c1 | inactive: 9.73%
CCN(CC)S(=O)(=O)c1nnc(NC(=O)c2ccc(C)cc2)s1 | inactive: -9.16%
CC(=O)N1CCc2cc(S(=O)(=O)NC(Cc3ccccc3)C(=O)Nc3cc(C)cc(C)c3)ccc21 (stereo unspecified) | inactive: -0.107%
COc1ccccc1N1CCN(Cc2nc(-c3cc(OC)c(OC)c(OC)c3)no2)CC1 | inactive: -13.1%
CC1CCCCN1CCCNC(=O)Cn1ncc2c3ccccc3n(Cc3ccccc3)c2c1=O (stereo unspecified) | inactive: -5.97%
Cc1ccc(Cl)cc1N1CCN(C(=O)CCc2nnc3n(C)c(=O)c4ccccc4n23)CC1 | inactive: 1.09%
Cc1ccc(NC(=O)CSc2nc3n[nH]c(C)c3c(=N)n2-c2ccccc2C)cc1C | inactive: -4.48%
